Experimental data taken from publication PMC6304311 (Influenza and Other Respiratory Viruses, 2018).

System: influenza virus isolates from SARI patients [A(H1N1)pdm09, influenza B, A(H3N2)]
Assay type: biochemical

CC(=O)N[C@H]1[C@H]([C@H](O)[C@H](O)CO)OC(C(=O)O)=C[C@@H]1N=C(N)N [zanamivir]
susceptibility of isolates from SARI cases: susceptible
